# Reference: PubChem BioAssay AID445 (National Center for Advancing Translational Sciences (NCATS), 2006)
# Several values for one entry are separate records, joined by “and”; a condition that tells them apart may be missing. Equal entries are not always repeated. Hit rate of the full screen: of about 110,000 compounds, about 40 (0.04%) were called active. This list was built around the results that the source calls inconclusive (neither active nor inactive); the mix of calls is not that of the screen. Calls come from the whole dose curve; as a rule, active = well fitted curve in the direction sought with a large enough effect in the signal ratio (not every such curve was filed as active); inconclusive = small, poorly fitted or top-dose-only effect, or a change in a side signal; inactive = flat fitted curve, though single readings scatter; the % refers to the signal ratio. Potencies beside an inconclusive call are fits to weak or partial responses and may not hold up.
# Test: IkB Signaling
# Conditions: ABC-DLBCL IkBa-CBG/CBR dual luciferase ratio (green luciferase fused to IkBa over red control in OCI-Ly3 lymphoma cells), 4 h, scaled: untreated 0%
# Procedure, shortened: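 In this assay, an IκBα–CBG68 fusion accumulates when IKK-driven degradation is blocked; native CBR normalizes for cell number. OCI-Ly3 cells were treated 4 h with compound and doxycycline, then green and red light read after Chroma-Glo addition.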
# [1] = IkBa stabilization activation: at 57.1 µM (top of the series), proteasome inhibitor 100% unless noted
# Potency is the fitted concentration of half-maximal effect.
structure (smiles),measurement,setting,value
CCc1nc2ccc(C(=O)NCc3ccccc3C)cc2nc1CC,IkBa stabilization activation,[1],inconclusive: 4.41% [signal inhibitor]
COc1ccc(C(=O)NCCc2csc(-c3ccc(Cl)cc3)n2)cc1,IkBa stabilization activation,[1],inconclusive: -0.563% [signal inhibitor]
CCC(Oc1ccc(F)cc1)C(=O)Nc1nc2c(s1)CCCC2 (centres undefined),IkBa stabilization activation,[1],inconclusive: -0.511% [signal inhibitor]
COc1ccc(N2CC(C)Cn3c2nc2c3c(=O)n(Cc3ccccc3F)c(=O)n2C)c(OC)c1 (centres undefined),IkBa stabilization activation,[1],inconclusive: 12.2% [signal inhibitor]
CCCSC1=N/C(=C\C=C\c2ccco2)C(=O)S1,IkBa stabilization activation,[1],inactive
C=C(C)Cn1c(N2CCN(CC)CC2)nc2c1c(=O)[nH]c(=O)n2C,IkBa stabilization activation,[1],inconclusive: 7.23% [signal activator]
CCOc1cc(C2C(C(=O)OCC(C)C)=C(C)N=C3SCCC(=O)N32)ccc1OC(C)=O (centres undefined),IkBa stabilization activation,[1],inactive
O=C(Nc1ccc(F)cc1)c1oc2ccccc2c1NC(=O)C1CCCCC1,IkBa stabilization activation,[1],inconclusive: 9.53% [signal inhibitor]
Cc1ccc(C(=O)OCc2cc3ccccc3[nH]c2=O)cc1,IkBa stabilization activation,[1],inactive
COc1ccc(C(NC(C)=O)c2ccc3cccnc3c2O)c(OC)c1 (centres undefined),IkBa stabilization activation,[1],inactive
COc1cccc(NC2CC(=O)N(CCc3ccccc3)C2=O)c1 (centres undefined),IkBa stabilization activation,[1],inactive
Cc1cccc(N2CCN(C(=O)C(C)n3nc(C)n4c(cc5occc54)c3=O)CC2)c1C (centres undefined),IkBa stabilization activation,[1],inconclusive: 1.48% [signal inhibitor]
COc1ccc(NC(=O)Nc2cccc(C)n2)cc1,IkBa stabilization activation,[1],inactive
CCc1ccc(CNC(=O)Cn2nc(-c3ccc(Cl)cc3)ccc2=O)cc1,IkBa stabilization activation,[1],inconclusive: 1.52% [signal inhibitor]
CCN(CC)S(=O)(=O)c1ccc(-c2csc(=Nc3cccc(C(F)(F)F)c3)n2Cc2ccc3c(c2)OCO3)cc1,IkBa stabilization activation,[1],inconclusive: 4.54% [signal inhibitor]
O=c1c(O)c(-c2ccc(O)c(O)c2)oc2cc(O)cc(O)c12,IkBa stabilization activation,[1],inconclusive: 0.0255% [signal inhibitor]
same,IkBa stabilization activation,"at 11.4 µM (top of the series), proteasome inhibitor 100%",inactive: -1.46% and inactive: -3.15%
same,IkBa stabilization activation,"at 25.6 µM (top of the series), proteasome inhibitor 100%",inactive: 0.518%
same,IkBa stabilization activation,"at 57.1 µM (top of the series), proteasome inhibitor 100%",inactive: -13.6%
Cc1ccc(S(=O)(=O)N2CCCc3cc(NS(=O)(=O)c4ccc(F)cc4)ccc32)cc1,IkBa stabilization activation,[1],inconclusive: 8.47% [signal inhibitor]
COc1cccc(NC(=O)Cn2c(=O)n(Cc3ccc(C(=O)NCc4ccc5c(c4)OCO5)cc3)c(=O)c3ccccc32)c1,IkBa stabilization activation,[1],inconclusive: 7.81% [signal inhibitor]
O=C(Cn1nnc(-c2ccccc2NC(=O)c2cccs2)n1)Nc1ccccc1,IkBa stabilization activation,[1],inconclusive: 1.51% [signal inhibitor]
CN(C)c1ccc(CNC(=O)C2CCN(S(=O)(=O)c3ccc4c(c3)oc(=O)n4C)CC2)cc1,IkBa stabilization activation,[1],inconclusive: 0.136% [signal inhibitor]
O=C(Nc1nccs1)c1ccc(Cl)c(S(=O)(=O)N2CCOCC2)c1,IkBa stabilization activation,[1],inconclusive: 2.32% [signal inhibitor]
Cc1ccc(-c2nnc3n2N=C(c2ccc(Br)cc2)CS3)cc1,IkBa stabilization activation,[1],inactive
COc1ccccc1C(=O)N(c1ccc(C)cc1)S(=O)(=O)c1ccc(Cl)cc1,IkBa stabilization activation,[1],inconclusive: 1.68% [signal inhibitor]
COc1cc2c(cc1OC)C(=O)N(C)CC2,IkBa stabilization activation,[1],"inactive: -0.28% [at 11.4 µM, scaled: untreated 0%, proteasome inhibitor 100%]"
O=S(=O)(/N=C(/Nc1cc(N2CCOCC2)ncn1)c1ccccc1)c1ccccc1,IkBa stabilization activation,[1],inactive
Cc1csc2nc(COC(=O)c3ccc(NC(=O)C(C)Oc4ccccc4)cc3)cc(=O)n12 (centres undefined),IkBa stabilization activation,[1],inconclusive: 6.4% [signal inhibitor]
COc1ccc(NC(=O)c2cnc(N3CCCC3)nc2)cc1OC,IkBa stabilization activation,[1],inconclusive: 1.15% [signal inhibitor]
Cc1nnc2ccc(N3CCN(C(=O)c4ccccc4)CC3)nn12,IkBa stabilization activation,[1],inactive
Cc1ccc(C)c(Cn2cnc3c(cnn3C(C)(C)C)c2=O)c1,IkBa stabilization activation,[1],inactive
CCCC1=Nc2cc(C(=O)N3CCC(C(=O)OCC)CC3)ccc2Sc2ccccc21,IkBa stabilization activation,[1],inconclusive: 0.52% [signal inhibitor]
N#CC(C#N)=CNCCN1CCN(C=C(C#N)C#N)CC1,IkBa stabilization activation,[1],"inactive: 1.52% [at 11.4 µM, scaled: untreated 0%, proteasome inhibitor 100%]"
O=S(=O)(Nc1ccc2c(c1)OCCO2)c1ccc(Br)s1,IkBa stabilization activation,[1],inconclusive: 0.628% [signal inhibitor]
Cc1cc(C)n(CC(O)COc2ccccc2C(=O)Nc2ccccc2)n1 (centres undefined),IkBa stabilization activation,[1],inconclusive: 0.09% [signal inhibitor]
O=C(C1CCCN(S(=O)(=O)c2cccc3nsnc23)C1)N1CCN(c2cccc(Cl)c2)CC1 (centres undefined),IkBa stabilization activation,[1],inconclusive: 9.98% [signal inhibitor]
CC(=O)c1cccc(NC(=O)c2c(F)c(F)c(F)c(F)c2F)c1,IkBa stabilization activation,[1],inconclusive: 3.34% [signal inhibitor]
Cc1ccc2nc(-c3ccccn3)c(Nc3ccccc3C)n2c1,IkBa stabilization activation,[1],inconclusive: -4.41% [signal inhibitor]
CC(C)c1ccc2oc(-c3cc(N)ccc3O)nc2c1,Potency,[1],"inconclusive: 0.631 µM [signal inhibitor, full curve]"
CCc1cccc(C)c1NS(=O)(=O)c1ccc2c(c1)CC(C)N2C(=O)C1CC1 (centres undefined),IkBa stabilization activation,[1],inconclusive: 0.82% [signal inhibitor]
Cc1ccc2c(CC(=O)OC3CCOC3=O)coc2c1 (centres undefined),Potency,[1],"inconclusive: 15.8 µM [signal inhibitor, partial curve]"
O=C(NCC(c1cccnc1)N1CCOCC1)c1ccc2c(c1)OCO2 (centres undefined),IkBa stabilization activation,[1],inactive
O=C(Nc1cccc(-c2cn3cccnc3n2)c1)c1ccc2c(c1)OCO2,IkBa stabilization activation,[1],inconclusive: 2.23% [signal inhibitor]
O=S(=O)(Nc1ncnc2sc3c(c12)CCC3)c1ccc(Cl)s1,IkBa stabilization activation,[1],inconclusive: 3.57% [signal inhibitor]
CCN1C(=O)C(O)(c2c[nH]c3ccccc23)c2cc(Br)ccc21 (centres undefined),IkBa stabilization activation,[1],inconclusive: 2.32% [signal inhibitor]
Cc1cccc(Cn2c(=O)n(-c3ccccc3C)c(=O)c3c2c2cc(C)ccc2n3C)c1,IkBa stabilization activation,[1],inconclusive: -0.881% [signal inhibitor]
Cc1ccc(CCNC(=O)C2CCN(S(=O)(=O)c3ccc4c(ccn4C)c3)CC2)cc1,IkBa stabilization activation,[1],inconclusive: -0.264% [signal inhibitor]
Cn1cc(S(=O)(=O)CC(=O)Nc2ccc3c(c2)OCO3)c2ccccc21,IkBa stabilization activation,[1],inconclusive: 14.1% [signal inhibitor]
O=C(/C=C/Nc1cccc(O)c1)c1ccccc1,Potency,[1],"inconclusive: 25.1 µM [signal inhibitor, partial curve]"
Cc1cccc2nc(CSCc3ccco3)cn12,IkBa stabilization activation,[1],inactive
COc1ccc(NC(=O)CSc2nc(C)cc(C)c2C(=O)Nc2ccccc2OC)cc1,IkBa stabilization activation,[1],inconclusive: -1.03% [signal inhibitor]
CC(C)N=C=NC(C)C,IkBa stabilization activation,[1],inactive
Cc1cc2cc(C(c3nnnn3Cc3ccco3)N3CCc4ccccc4C3)c(=O)[nH]c2cc1C (centres undefined),IkBa stabilization activation,[1],inconclusive: 13.6% [signal inhibitor]
COc1ccc(CCn2c(-c3ccco3)nc3nc4ccccc4nc32)cc1,IkBa stabilization activation,[1],inactive
O=C(CCSCc1cccc(Cl)c1)NCCc1ccc(Cl)cc1,IkBa stabilization activation,[1],inconclusive: -1.56% [signal inhibitor]
CCOC(=O)C1CCN(c2ncnc3c2[nH]c2cccc(OC)c23)CC1,IkBa stabilization activation,[1],inactive
O=C(c1ccccc1)N1CCc2cc(CNS(=O)(=O)c3ccc(Cl)s3)ccc21,IkBa stabilization activation,[1],inactive
CCOC(=O)C1CCCN(C(=O)c2cc3c(C)nc4ccccc4c3o2)C1 (centres undefined),IkBa stabilization activation,[1],inconclusive: 1.53% [signal inhibitor]
Cc1ccc(S(=O)(=O)O[C@H]2C[C@@H](C(C)(C)C)CC[C@@H]2c2ccccc2)cc1,IkBa stabilization activation,[1],"inactive: 1.78% [at 11.4 µM, scaled: untreated 0%, proteasome inhibitor 100%]"
Cc1oc(-c2ccc(Cl)cc2)nc1Cn1c(=O)cc(C)c2c(C)nn(-c3ccccc3)c21,IkBa stabilization activation,[1],inconclusive: -1.13% [signal inhibitor]
Oc1c(CN2CCOCC2)cc(COCc2ccccc2)c2cccnc12,IkBa stabilization activation,[1],inactive
N/N=C1/c2ccccc2N[C@H]1OC(=O)Nc1ccccc1,IkBa stabilization activation,[1],"inactive: 13.2% [at 11.4 µM, scaled: untreated 0%, proteasome inhibitor 100%]"
Cc1nn2cc(-c3ccc(OC(C)C)cc3)nc2s1,IkBa stabilization activation,[1],inactive
COc1ccc(NC(=O)CN2CCC(n3c(C)nc4cc(F)ccc43)CC2)c(OC)c1,IkBa stabilization activation,[1],inactive
O=C(NCCc1ccc(Cl)cc1)C1CCN(S(=O)(=O)c2ccc3[nH]ccc3c2)CC1,IkBa stabilization activation,[1],inconclusive: 2.98% [signal inhibitor]
CCOC(=O)c1c(C)oc2nc(C)nc(NCCCN3CCN(c4cc(C)ccc4C)CC3)c12,IkBa stabilization activation,[1],inconclusive: -2.03% [signal inhibitor]
CCOC(=O)C(CC)Sc1nc2c(c(=O)[nH]c(=O)n2C)n1C/C=C(/C)Cl (centres undefined),IkBa stabilization activation,[1],inactive
CC(C)c1ccc(Nc2c(-c3ccccn3)nc3ccccn23)cc1,IkBa stabilization activation,[1],inconclusive: 9.62% [signal inhibitor]
N[C@H](CS(=O)O)C(=O)O,IkBa stabilization activation,[1],inactive
COc1ccc(-c2nc(CSCC(=O)NCc3ccccc3Cl)c(C)o2)cc1OC,IkBa stabilization activation,[1],inconclusive: 3.65% [signal inhibitor]
COC(=O)C1=C(Cn2cnc3ccccc32)NC(=O)NC1c1cc(C)ccc1C (centres undefined),IkBa stabilization activation,[1],inconclusive: 2.93% [signal inhibitor]
CNC(=O)C1CCC(Cn2c(=O)c3sccc3n(CC(=O)N3CCC(C)CC3)c2=O)CC1 (centres undefined),IkBa stabilization activation,[1],inactive
Cc1cc(C)c(Cn2c(=O)n(CCCC(=O)NCc3ccc4c(c3)OCO4)c(=O)c3sccc32)c(C)c1,Potency,[1],"inconclusive: 39.8 µM [signal activator, single point]"
